We go through 109 sequences from the supplement of paper PMC3334620.

Over roughly 33,000 sequences, “E-score (-0.5 to 0.5)” has its median near -0.016; the highest 2% begin near 0.31. This is one part of the list.

This assay addresses Cst6 (UniProt P40535). The assay can be described thus: PBM E-score (8-mer binding enrichment) (E-score (-0.5 to 0.5)); higher = stronger / more preferred TF binding; most listed sequences are background and not binding sites. As to conditions: protein concentration: 200 nM; construct: GST-DNA-binding domain. The gist of the method: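 The E-score, a modified Wilcoxon-Mann-Whitney statistic, was computed by the Universal PBM Analysis Suite for every ungapped eight-base word pooled with its reverse complement. Scans behind it were normalised with masliner after bound GST-tagged yeast transcription factors were detected with fluorescent anti-GST. The proteins, at about 100-200 nM, had been applied to universal all-10-mer Agilent arrays made double-stranded by primer extension.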
TATCGGCA: the “PBM E-score” value turned out to be 0.032. Then CCCCAATC, with -0.17. Regarding ACTCGGAA, the “PBM E-score” value is -0.0503.

CGGGAGTA: the “PBM E-score” value is -0.124. Under GCAACAGC stands -0.0327; under GGGCCCAC, -0.291; under ACCGCTCA, 0.141. Under ATTTCGAC stands 0.0504; under AATTTGAT, 0.131; under CGTCGCTC, -0.0591. Under TAGCGAAA stands 0.0411; under TAGCTACA, 0.0398; under ACAGCTGT, -0.154. Consider TCGGCCGA, for which the “PBM E-score” value was -0.0507.

For the sequence ATCAAAGC, the “PBM E-score” value was -0.0365. Under ATGTGATG stands 0.0899; under TCACCGGA, 0.223; under GGAGAAAC, -0.164.

In the case of CGCGGCGC, the “PBM E-score” value is 0.372. Under ACATAGAT stands 0.0936. Then CAAGAGAC, with -0.257; and ATCGCTGA, with 0.00583.

As to CCCCACAC, the “PBM E-score” value is -0.209.

Take CCCCTTTC: the “PBM E-score” value was -0.315.

As for AAAGTGCA, the “PBM E-score” value was 0.0552.

In the case of ACCCATAC, the “PBM E-score” value turned out to be 0.0331. Under ACTGCCCT stands -0.142; under AAAAAGGC, 0.0954. Under CAAACGGA stands -0.0075; under ACACTGCG, 0.0396; under CTACCTCC, -0.317. Turning to AAGGAGGG, the “PBM E-score” value is -0.0908.

For AGACACGC, the “PBM E-score” value was determined as 0.0288.

AATGGTAT: the “PBM E-score” value turned out to be 0.0418.

Consider GAGACGCC, for which the “PBM E-score” value was found to be 0.0132.

As to GTAACTCA, the “PBM E-score” value is -0.0416. Under TCCAGACA stands -0.0966; under GACTTGTA, -0.0736; under AGCCCAGG, -0.371. Then CCTCCTCA, with -0.256; and AACTGAGT, with 0.022; and CATATGGC, with 0.0678. Turning to ACATGAAA, the “PBM E-score” value was found to be 0.0572. Then CAGATGGC, with 0.0814; and GGTCACTA, with 0.0296; and GTTGGTGA, with 0.15. Then ATTTGAGG, with 0.0741. Then AATTACAT, with 0.318; and CGGGACAA, with -0.0706; and ACTAATAT, with 0.302.

In the case of AACGCAAC, the “PBM E-score” value was 0.212.

In the case of ATCGGTCG, the “PBM E-score” value is -0.0795. Then GGTCTACA, with 0.00658; and AAAGCTCG, with -0.0599; and GTAAATGA, with 0.277.

Turning to ATTCGGAC, the “PBM E-score” value turned out to be 0.108. Under GGCACCAA stands 0.207; under GATGTAGA, 0.205. Under AGCCAAAG stands -0.114; under CGTGCAGA, -0.0398; under CCGTGTGA, 0.241. Regarding TCTCGGAA, the “PBM E-score” value was -0.00678. Under AATTAAGG stands -0.0409.

For CATTCGAG, the “PBM E-score” value was found to be 0.0766. Then AAATGTGC, with 0.0944; and TGCGACCA, with 0.00536. Take GGCTCCGA: the “PBM E-score” value is -0.0824. On to CAGGGAAC, for which the “PBM E-score” value is 0.00472. Under AAGAACCA stands 0.0993. For the sequence AATACGCT, the “PBM E-score” value was found to be 0.0276. For the sequence AATTCAGT, the “PBM E-score” value was 0.0141.

Regarding AAACCTAA, the “PBM E-score” value stood at 0.052. Then ACAGGAAG, with -0.0175. For the sequence GAAGAACA, the “PBM E-score” value amounted to 0.131. Then GAAGATTA, with 0.124; and AACGAATT, with 0.139; and TCATCACA, with 0.252. ACACAGCT: the “PBM E-score” value is -0.115. Under TAGGTGCA stands -0.149; under CCAACAAA, 0.154. Then GTCGATAA, with 0.0842; and AGATGGAC, with 0.18.

Take AAAGAAGT: the “PBM E-score” value amounted to 0.0945. Then ACTGAGCA, with -0.0386; and CAACTTGA, with 0.139. ATGGGGGA: the “PBM E-score” value was -0.413. Under GACTCATC stands -0.11; under CAGGTGCC, -0.107. Under ACGCACGG stands 0.267; under ATTCGGTA, 0.164. Under CAACGCTA stands -0.0868; under CTTTGGGC, -0.163. Take CGCAACCA: the “PBM E-score” value was -0.0895.

Consider ACGAATGG, for which the “PBM E-score” value worked out at 0.0273. Under AATGCGCT stands -0.0832; under CATTGCAG, 0.0762. Under CGACGGTA stands -0.0315; under AGTTGACC, -0.114. Then CCAGAGAC, with -0.162.

Consider GATTTCTA, for which the “PBM E-score” value was found to be 0.123. Under GCTAACCC stands -0.223.

As to CCCAGCAA, the “PBM E-score” value is -0.101.

Take CGAGAGGA: the “PBM E-score” value is -0.00121. Then ATAGCTAG, with -0.0952. For GTCAAGGA, the “PBM E-score” value amounted to 0.101. Take CTATAAAG: the “PBM E-score” value came out at 0.132. Then GATTTGCC, with 0.0926. Then TCAACTCA, with 0.113. Then GAGCCAAA, with -0.116.
